In PubChem BioAssay AID330 (DTP/NCI, 2004):
Inconclusive results and toxic doses are left out. The source holds more than one record for some entries. Only these are listed. The source may hold further records. Results that share an entry are repeated measurements across runs, samples, wells, individuals or studies. Brackets tell where a record comes from. The letters are not those of the source and start again with each entry.

Test system: P388 leukemia ip, CD2F1 mice, survival T/C
Test: NCI In Vivo Anticancer Drug Screen. Data for tumor model P388 Leukemia (intraperitoneal) in CD2F1 (CDF1) mice
Conditions: endpoint: median survival time, higher = longer survival
[1] = dose: 6.25 mg/kg/injection, schedule: Q01DX009 (ip), vehicle: saline

In the case of `COc1cccc2c1C(=O)c1c(O)c3c(c(O)c1C2=O)C[C@@](O)(C(C)=O)C[C@@H]3OC1CC(N=CCCCC=NC2CC(O[C@H]3C[C@](O)(C(C)=O)Cc4c(O)c5c(c(O)c43)C(=O)c3c(OC)cccc3C5=O)OC(C)C2O)C(O)C(C)O1` (stereo partly drawn), the T/C (dose: 4.0 mg/kg/injection, schedule: Q04DX003 (ip), vehicle: distilled water + Tween-80) is reported as 115 % of control and 150 % of control and the T/C (dose: 8.0 mg/kg/injection, schedule: Q04DX003 (ip), vehicle: distilled water + Tween-80) is reported as 123 % of control and 159 % of control.
In the case of `CC(=O)c1cc(C)oc1C`, the T/C (dose: 200.0 mg/kg/injection, schedule: Q01DX009 (ip), vehicle: saline) is reported as 106 % of control and 173 % of control.
`CC[C@]1(O)C[C@H]2CN(CCc3c([nH]c4ccccc34)[C@@](C(=O)OC)(c3cc4c(cc3OC)N(C=O)[C@H]3[C@@](O)(C(=O)OC)[C@H](OC(C)=O)[C@]5(CC)C=CCN6CC[C@]43[C@@H]65)C2)C1` was tested, and the T/C (dose: 0.05 mg/kg/injection, schedule: Q01DX009 (ip), vehicle: saline) was 111 % of control and 160 % of control, the T/C (dose: 0.1 mg/kg/injection, schedule: Q01DX009 (ip), vehicle: saline) was 119 % of control and 178 % of control and the T/C (dose: 0.4 mg/kg/injection, schedule: Q04DX003 (ip), vehicle: water) was 110 % of control, 165 % of control, 179 % of control. For the same molecule, the T/C (dose: 1.6 mg/kg/injection, schedule: Q04DX003 (ip), vehicle: water) was 115 % of control and 184 % of control.
In the case of `C[N+](C)=c1ccc2nc3ccc(N)cc3sc-2c1`, the T/C (dose: 12.5 mg/kg/injection, schedule: Q01DX009 (ip), vehicle: saline with Tween-80) is reported as 93 % of control and 193 % of control.
With `CN(CC(N)=O)C(=O)N(CCCl)N=O` the T/C (dose: 120.0 mg/kg/injection, schedule: Q01DX005 (ip), vehicle: saline with Tween-80) was 117 % of control and 175 % of control.
`COc1cccc2c1C(=O)c1c(O)c3c(c(O)c1C2=O)CC(O)(C(=O)COc1ccccc1)CC3OC1CC(NC(=O)C(F)(F)F)C(O)C(C)O1` (stereo not drawn) was tested, and the T/C (dose: 6.25 mg/kg/injection, schedule: Q01DX009 (ip), vehicle: other) was 110 % of control and 157 % of control.
`CNC(=O)N(C)C(C)=O` was tested, and the T/C (dose: 400.0 mg/kg/injection, schedule: Q04DX003 (ip), vehicle: saline) was 91 % of control and 177 % of control.
For `C=C1C(=O)OC2C1CC(O)/C(C)=C\CCC1(C)OC21` (stereo not drawn), the T/C (dose: 80.0 mg/kg/injection, schedule: Q01DX009 (ip), vehicle: distilled water + Tween-80 + alcohol) was 123 % of control and 150 % of control.
In the case of `CS(=O)(=O)OCC#CCOS(C)(=O)=O`, the T/C (dose: 25.0 mg/kg/injection, schedule: Q01DX009 (ip), vehicle: Klucel (hydroxypropylcellulose) (HPC)) is reported as 121 % of control and 172 % of control.
For `Nc1ncn(C2OC(CO)C(O)C2O)c(=O)n1` (stereo not drawn), the T/C [1] was 175 % of control [sample A] and 87 % of control [sample B] and the T/C (dose: 73.0 mg/kg/injection, schedule: Q01DX001 (ip), vehicle: saline) was 99 % of control and 168 % of control.
With `COc1cccc2c1C(=O)c1c(O)c3c(c(O)c1C2=O)C[C@@](O)(C(=O)COC(=O)Cc1ccccc1)C[C@@H]3OC1CC(N)C(O)C(C)O1` (stereo partly drawn) the T/C (dose: 4.0 mg/kg/injection, schedule: Q01DX009 (ip), vehicle: saline with Tween-80) was 117 % of control and 166 % of control.
For `Nc1n[n+](-c2ccc(Cl)cc2)no1`, the T/C (dose: 50.0 mg/kg/injection, schedule: Q01DX009 (ip), vehicle: water) was 88 % of control and 151 % of control.
In the case of `CC1=CC(=Nc2ccc(N(CCCl)CCCl)cc2)C=C(C)C1=O`, the T/C (dose: 6.25 mg/kg/injection, schedule: Q01DX009 (ip), vehicle: Klucel (hydroxypropylcellulose) (HPC)) is reported as 101 % of control and 157 % of control.
With `COc1cc2c[n+](C)c3c4cc5c(cc4ccc3c2cc1OC)OCO5` the T/C (dose: 12.5 mg/kg/injection, schedule: Q01DX009 (ip), vehicle: water) was 105 % of control and 150 % of control.
In the case of `O=NNc1ccccn1`, the T/C (dose: 25.0 mg/kg/injection, schedule: Q01DX005 (ip), vehicle: water) is reported as 100 % of control and 156 % of control.
In the case of `COc1cc(NS(C)(=O)=O)ccc1Nc1c2ccccc2nc2ccccc12`, the T/C (dose: 0.5 mg/kg/injection, schedule: Q01DX009 (ip), vehicle: other) is reported as 110 % of control and 150 % of control.
In the case of `COc1cc2oc3c(C)c(=O)cc4oc(-c5ccccc5)cc(c2c2c1CCC(c1ccccc1)O2)c43` (stereo not drawn), the T/C (dose: 1.75 mg/kg/injection, schedule: Q01DX005 (ip), vehicle: Klucel (hydroxypropylcellulose) (HPC)) is reported as 98 % of control and 171 % of control and the T/C (dose: 3.5 mg/kg/injection, schedule: Q01DX005 (ip), vehicle: Klucel (hydroxypropylcellulose) (HPC)) is reported as 92 % of control and 182 % of control.
For `CC[C@@]1(O)C[C@H]2CN(CCc3c([nH]c4ccccc34)[C@@](C(=O)OC)(c3cc4c(cc3OC)N[C@H]3[C@@](O)(C(=O)OC)[C@H](OC(C)=O)[C@]5(CC)C=CCN6CC[C@]43[C@@H]65)C2)C1`, the T/C (dose: 8.0 mg/kg/injection, schedule: Q01DX001 (ip), vehicle: water) was 121 % of control and 150 % of control.
`COc1cc2cc(c1Cl)N(C)C(=O)CC(OC(=O)C(C)NC(=O)C(C)C)C1(C)OC1C(C)C1CC(O)(NC(=O)O1)C(OC)/C=C/C=C(C)C2OC` (stereo not drawn) was tested, and the T/C (dose: 8.0 micrograms/kg/injection, schedule: Q01DX009 (ip), vehicle: distilled water + alcohol) was 114 % of control and 159 % of control and the T/C (dose: 16.0 micrograms/kg/injection, schedule: Q01DX009 (ip), vehicle: distilled water + alcohol) was 117 % of control and 159 % of control.
In the case of `N#Cc1cn(C2OC(CO)C(O)C2O)c2ncnc(N)c12` (stereo not drawn), the T/C (dose: 0.3 mg/kg/injection, schedule: Q04DX003 (ip), vehicle: other) is reported as 95 % of control and 165 % of control.
With `CNC(=O)OCc1c(COC(=O)NC)c(-c2ccc(Cl)cc2)n(C)c1C` the T/C (dose: 25.0 mg/kg/injection, schedule: Q01DX009 (ip), vehicle: distilled water + Tween-80) was 88 % of control and 165 % of control.
With `C[NH-].C[NH-].[Cl][Pt+2][Cl]` the T/C [1] was 113 % of control and 160 % of control.
With `c1cc(-c2cc3ccc(C4=NCCN4)cc3[nH]2)ccc1C1=NCCN1` the T/C (dose: 25.0 mg/kg/injection, schedule: Q04DX003 (ip), vehicle: saline) was 124 % of control and 154 % of control and the T/C (dose: 100.0 mg/kg/injection, schedule: Q04DX003 (ip), vehicle: saline) was 96 % of control and 189 % of control.
For `Cc1nnc(C)s1`, the T/C (dose: 400.0 mg/kg/injection, schedule: Q01DX009 (ip), vehicle: Klucel (hydroxypropylcellulose) (HPC)) was 104 % of control, 108 % of control, 151 % of control.
In the case of `O=C(O)[C@@H](NC(=O)C(Cl)(Cl)Cl)[C@@H]1CC(Br)=NO1`, the T/C (dose: 60.0 mg/kg/injection, schedule: Q01DX005 (ip), vehicle: distilled water + Tween-80) is reported as 115 % of control and 151 % of control.
